The target in test [1] is T1, Monoacylglycerol lipase (MGL) (Rattus norvegicus, UniProt Q8R431).
T1 sequence (Q8R431 1-303): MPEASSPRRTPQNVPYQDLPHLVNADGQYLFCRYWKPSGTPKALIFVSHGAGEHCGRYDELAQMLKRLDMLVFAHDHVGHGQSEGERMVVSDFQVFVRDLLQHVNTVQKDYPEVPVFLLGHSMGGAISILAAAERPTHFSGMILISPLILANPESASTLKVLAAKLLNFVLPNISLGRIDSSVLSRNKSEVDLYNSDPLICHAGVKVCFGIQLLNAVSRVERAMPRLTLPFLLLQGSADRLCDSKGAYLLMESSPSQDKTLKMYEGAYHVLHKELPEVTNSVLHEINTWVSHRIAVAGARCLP
Description: biochemical.

Test [2] concerns the target T1, Monoacylglycerol lipase (MGL). Conditions: 100 µM.

By IC50 is commonly meant the midpoint of a concentration-inhibition curve. A high value points to a need for much substance. The Ki is the equilibrium dissociation constant of an inhibitor or competing ligand from its target. Low readings indicate a stronger hold on the target, high ones a looser hold on the target. Usually inhibition stands for how much of the control response was suppressed. Low values mean little suppression, high ones strong suppression. In test [1], `O=S(=O)(F)CCCCOc1ccccc1` [Compound 17, 4-Phenoxybutylsulfonyl fluoride] showed an IC50 of 915 µM and a Ki of 298 µM. The inhibition in test [2] was 26%. The corresponding values for `O=C(CCCOc1ccc(OCc2ccccc2)cc1)C(F)(F)F` [Compound 23.1, 1,1,1-Trifluoro-5-[4-(benzyloxy)phenoxy]-2-pentanone] are 103 µM, 28 µM and 65%. In the case of `O=C(CCCCOc1ccc(OCc2ccccc2)cc1)C(F)(F)F` [Compound 23.2, 1,1,1-Trifluoro-6-[4-(Benzyloxy)phenoxy]-2-hexanone], in test [1], the IC50 is 86.2 µM and the inhibition constant (Ki) worked out at 23.7 µM. This compound had an inhibition in test [2] of 64%.

As for `O=C(CCCCCOc1ccc(OCc2ccccc2)cc1)C(F)(F)F` [Compound 23.3, 1,1,1-Trifluoro-7-[4-(Benzyloxy)phenoxy]-2-heptanone], in test [1], the IC50 was 109 µM and affinity was put at a Ki of 30 µM. In test [2], this compound came in with an inhibition of 61%. For the compound `CCOC(=O)C(=O)CCCCCOc1ccccc1` [Compound 87.4, 2-Oxo-7-phenoxy-heptanoic acid ethyl ester], in test [2], the inhibition worked out at 66%. In test [1], `CC(=O)C(F)(F)CCCCOc1cccc(OCc2ccccc2)c1` [Compound 89.1] registered a 50% inhibitory concentration (IC50) of 17.9 µM and a Ki of 4.5 µM.

On to `CC(=O)C(F)(F)CCCCCOc1ccccc1` [Compound 89.4, 3,3-Difluoro-8-phenoxy-2-octanone], for which, in test [2], the inhibition stood at 72%. In test [1], `Cc1nnc(C(=O)C(F)(F)CCCCCCOc2ccccc2)o1` [Compound 89.7, 2,2-Difluoro-8-phenoxy-1-(5-methyl-1,3,4-oxadiazol-2-yl)-octan-1-one] yielded an IC50 of 0.071 µM and a Ki of 0.017 µM. Regarding `Cc1cccc(C(=O)C(F)(F)CCCCOc2ccccc2)c1` [Compound 89.8], the inhibition in test [2] is 55%. Compound `O=C(c1cccnc1)C(F)(F)CCCCOc1ccccc1` [Compound 89.10, 2,2-Difluoro-6-phenoxy-1-(pyridin-3-yl)-hexan-1-one] showed an inhibition in test [2] of 25%.

`O=C(c1cccnc1)C(F)(F)CCCCOc1cccc(OCc2ccccc2)c1` [Compound 89.11, 2,2-Difluoro-6-[3-(benzyloxy)phenoxy]-1-(pyridin-3-yl)-hexan-1-one] showed an inhibition in test [2] of 65%. Consider `Cc1nnc(C(=O)C(F)(F)CCCCOc2cccc(OCc3ccccc3)c2)o1` [Compound 89.13], for which the IC50 in test [1] was found to be 0.072 µM. In other words, the double-digit nanomolar range. For `CCOC(=O)C(=O)c1ccc(-c2ccccc2)cc1` [Compound 91.1, Ethyl 2-(biphenyl-4-yl)-2-oxoacetate], in test [1], the IC50 came out at 51.6 µM and the inhibitory constant (Ki) was found to be 12.9 µM. In test [2], `CCOC(=O)C(=O)c1ccccc1` [Compound 91.2] registered an inhibition of 23%. In test [2], `CCOC(=O)C(=O)c1ccc(Br)cc1` [Compound 91.5, Ethyl 2-(4-bromophenyl)-2-oxoacetate] gave an inhibition of 79%. As for `Cc1nnc(C(=O)C(F)(F)c2ccc(Br)cc2)o1` [Compound 93.5, 2-(4-Bromophenyl)-2,2-difluoro-1-(5-methyl-1,3,4-oxadiazol-2-yl)ethanone], in test [1], the half-maximal inhibitory concentration (IC50) worked out at 1.69 µM and the affinity, expressed as Ki, was 0.42 µM. In the case of `O=C(c1cccc(Br)n1)C(F)(F)c1ccc(-c2ccccc2)cc1` [Compound 93.7, 2-(Biphenyl-4-yl)-1-(6-bromopyridin-2-yl)-2,2-difluoroethanone], in test [2], the inhibition stood at 91%. Regarding `O=C(c1nc2ccccc2s1)C(F)(F)c1ccccc1` [Compound 93.8], the inhibition in test [2] came to 32%. Same read-out and setting: in the case of `O=C(CCCCCCOc1ccccc1)C(F)(F)c1ccccn1` [Compound 96.1, 1,1-Difluoro-8-phenoxy-1-(pyridin-2-yl)octan-2-one] it was 76%; in that of `O=C(c1ccc(-c2ccccc2)cc1)C(F)(F)c1ccccn1` [Compound 96.2, 1-(Biphenyl-4-yl)-2,2-difluoro-2-(pyridin-2-yl)ethanone], 86%.
